# From PubChem BioAssay AID488969 (Vanderbilt High Throughput Screening Facility, 2010)
# Over roughly 110,000 compounds, “z-score” has its median near -0.1; the highest 2% begin near 2. Some of the results follow.
# Target: Metabotropic glutamate receptor 8 (Rattus norvegicus) (UniProt P70579)
# Assay: rat mGluR8 modulators via GIRK flux, primary screen, cell-based, thallium flux, HTS (AID 488969)
# Conditions: HEK293 rat mGluR8, GIRK (G protein-gated inwardly rectifying potassium channel) thallium flux, FluoZin2; at 10 µM; stronger effect = higher value; submaximal glutamate (EC20) added with thallium
# Chain of UniProt P70579 (P70579 whole entry, looked up): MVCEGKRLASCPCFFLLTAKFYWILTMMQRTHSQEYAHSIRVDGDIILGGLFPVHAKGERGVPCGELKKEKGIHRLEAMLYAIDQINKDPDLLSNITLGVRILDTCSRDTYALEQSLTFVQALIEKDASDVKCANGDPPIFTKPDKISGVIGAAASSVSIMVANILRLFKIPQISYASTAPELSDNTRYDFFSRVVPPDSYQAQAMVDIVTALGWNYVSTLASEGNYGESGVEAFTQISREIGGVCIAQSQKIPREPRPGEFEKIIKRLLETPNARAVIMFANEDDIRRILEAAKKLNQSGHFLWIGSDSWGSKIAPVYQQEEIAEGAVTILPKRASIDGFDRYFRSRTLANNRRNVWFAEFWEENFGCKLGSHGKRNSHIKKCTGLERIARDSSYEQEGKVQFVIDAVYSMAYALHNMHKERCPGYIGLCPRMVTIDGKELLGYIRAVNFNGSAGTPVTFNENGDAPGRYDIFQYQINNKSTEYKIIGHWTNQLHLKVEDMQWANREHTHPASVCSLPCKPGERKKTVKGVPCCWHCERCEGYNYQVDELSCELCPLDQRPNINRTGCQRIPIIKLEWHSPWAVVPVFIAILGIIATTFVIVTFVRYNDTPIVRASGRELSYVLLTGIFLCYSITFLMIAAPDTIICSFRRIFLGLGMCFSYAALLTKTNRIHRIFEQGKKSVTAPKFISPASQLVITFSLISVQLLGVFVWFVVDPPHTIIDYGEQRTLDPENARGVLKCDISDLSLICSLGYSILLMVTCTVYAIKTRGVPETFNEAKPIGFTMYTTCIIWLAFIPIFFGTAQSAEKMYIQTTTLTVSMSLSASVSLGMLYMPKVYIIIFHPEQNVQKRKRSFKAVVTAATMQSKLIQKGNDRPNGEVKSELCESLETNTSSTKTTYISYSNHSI
row,SMILES,z-score
1,COc1cc2c(cc1OC)CN(C(=O)c1cc(=O)c3ccccc3o1)CC2,-0.159
2,CC(=O)c1cccc(OCCN2C(=O)NC(C)(C)C2=O)c1,0.0476
3,Cc1ccc2c(c1)c1c(n2C)C(C(N)=O)CCC1 (stereo not drawn),-0.132
4,CCOC(=O)C1CCN(S(=O)(=O)c2cccc(-c3cn4cccnc4n3)c2)CC1,-0.132
5,CCCOc1ccccc1C1NC(=O)NC(C)=C1C(=O)OCc1ccccc1 (stereo not drawn),0.0768
6,COc1ccccc1-n1c(-c2ccc(NS(C)(=O)=O)cc2)n[nH]c1=S,-0.385
7,O=C(Nc1ccccc1Sc1ccccc1)c1ccc(F)cc1,-0.165
8,CN1C(=O)CC(Sc2ccccc2C(=O)O)C1=O (stereo not drawn),0.0241
9,Cc1ccc(C)c(S(=O)(=O)NCc2ccc(C(=O)N3CCN(C)CC3)cc2)c1,-0.152
10,O=C(O)c1cccnc1NC1CCCC1,0.516
11,O=C1Nc2ccccc2C12Nc1ccccc1-c1nc3ccccc3n12 (stereo not drawn),-0.273
12,O=C(NCc1cccs1)Nc1cccc(Cl)c1,0.43
13,COc1cc(C)nc(N(C)S(=O)(=O)c2ccccc2Cl)n1,-0.0755
14,COc1ccc(N=Cc2nc(-c3ccco3)oc2O)cc1,-0.138
15,CCOC(=O)C(CCCOc1cccc(CC)c1)C(=O)OCC,0.094
16,O=C(c1cc2c(s1)-c1ccccc1OC2)N1CCN(c2ccccn2)CC1,-0.421
17,CC1CCCCN1S(=O)(=O)c1ccc(S(=O)(=O)N2CCN(c3ccc(F)cc3)CC2)cc1 (stereo not drawn),-0.955
18,C/C(=N\NC(=O)c1cccc(S(=O)(=O)Nc2ccccc2Cl)c1)c1ccco1,-0.146
19,N#CC1=C(N)OC2=C(C(=O)CCC2)C1Cc1ccccc1 (stereo not drawn),-0.0816
20,CC1CC(=O)NN=C1c1ccc(N(C)C)c([N+](=O)[O-])c1 (stereo not drawn),-0.192
21,CC(C)CC(OC(=O)c1cccs1)C(=O)NCC1CCCO1 (stereo not drawn),-0.0478
22,CCCOc1ccc(OCCCCNC(C)CC)cc1 (stereo not drawn),0.85
23,CCCCCOCC(O)CCC(=O)NN (stereo not drawn),-0.00733
24,O=C(CCS(=O)(=O)Cc1ccccc1F)NCCCN1CCCCC1,0.214
25,Cc1occc1C(=O)Nc1cccc(C(=O)O)c1,-0.0368

row,SMILES,z-score
1,COc1cccc(C(=O)Cn2c(=O)n(CC3CCCO3)c(=O)c3ccccc32)c1 (stereo not drawn),-0.719
2,CCCCNC(=O)c1ccc2c(OCC)n(CCCC)nc2c1,-0.483
3,CCc1cc2c(=O)[nH]c(Cc3ccccc3)nc2s1,-0.371
4,CCCN(CCC)c1nc(C)cc(C(C#N)c2nc3ccccc3o2)n1 (stereo not drawn),1.32
5,CCC(=O)Nc1cccc(-c2nnc(SCC(=O)c3ccccc3)n2C)c1,-0.951
6,c1csc(CN2CCOCC2)c1,0.267
7,CC(C)(Oc1ccc(Cl)cc1)C(=O)NCc1ccncc1,0.181
8,COc1ccccc1/C=N/NC(=Nc1ccc(C)cc1)c1nc2ccccc2s1,-0.141
9,Cc1c(C(=O)N(C)Cc2ccccc2)oc2ccc(S(=O)(=O)N3CCCC3)cc12,-2.22
10,CCc1ccc(N2C(=O)/C(=C/c3cccs3)N(CC(=O)OC)C2=S)cc1,-0.102
11,Cc1nc2nc(COc3ccccc3)[nH]n2c(=O)c1Cc1ccccc1,-1.83
12,Brc1ccc(C2=CC(c3ccco3)n3ncnc3N2)cc1 (stereo not drawn),-2.57
13,O=C(CSc1nnc(-c2cccnc2)n1C1CCCCC1)NC1CCCC1,-0.0559
14,O=C(CN1C(=O)CSc2ccccc21)Nc1ccc2c(c1)OCCO2,-0.322
15,O=C(CCc1ccccc1)NCCCN1CCOCC1,0.801
16,Cc1ccc(C(=O)NC(=S)Nc2ccc(-c3cc4ccccc4oc3=O)cc2)c(C)c1,-0.115
17,Cc1ccc(C)c2sc(NC(=O)c3ccc(N4CCCCC4)c([N+](=O)[O-])c3)nc12,0.179
18,Cc1c(C(=O)NC2CCCCC2)oc2c1C(=O)CC(C)(C)C2,1.33
19,CN(C)c1nc2ccc(OCCN3CCCCC3)cc2s1,0.169
20,CC(=O)NS(=O)(=O)c1ccc(NC(=S)NC(=O)COc2ccccc2C)cc1,0.496
21,COc1ccc(CN(Cc2nc3ccccc3c(=O)[nH]2)C(=O)NC2CCCCC2)cc1,-0.301
22,O=S(=O)(Cc1ccc(Cl)cc1)CC(O)COCc1ccccc1 (stereo not drawn),0.0839
23,COc1ccc(S(=O)(=O)N(CC(=O)NCC2CCCO2)c2ccc(F)cc2)cc1OC (stereo not drawn),0.22
24,CC(NC(=O)c1ccco1)c1ccc2c(c1)OCCO2 (stereo not drawn),0.162
25,Cc1cccc(C)c1N1CCN(C(=O)Nc2ccc3c(c2)OCCO3)CC1,-0.0911

row,SMILES,z-score
1,Cc1nnc(NC(=O)CSc2nnc(Cc3ccccc3)n2Cc2ccccc2)s1,-0.0888
2,O=C(CSc1ccccc1)N1CCc2ccccc21,-0.138
3,Cn1cccc1C(=O)NC(=O)COC(=O)c1ccccc1O,0.606
4,COc1cc(NC(=O)CSc2nccc(C)n2)c(C(=O)O)cc1OC,-0.26
5,CCCOc1ccccc1N/C(=N\S(=O)(=O)c1ccc(C)cc1)Nc1nc(C)cc(C)n1,-0.0949
6,COc1cccc(OC)c1C(=O)Nc1cc(C)on1,0.04
7,COc1cc(C(=O)Nc2ccc3c(c2)Cc2cc(NC(=O)c4cc(OC)c(OC)c(OC)c4)ccc2-3)cc(OC)c1OC,-0.278
8,CCCCCCNCc1cccc(Br)c1,-0.031
9,COc1ccccc1NC(=O)CCC(=O)Nc1nnc(C(F)(F)F)s1,-0.293
10,COc1cccc(/C=N/n2c(-c3ccco3)nc3ccccc3c2=O)c1OC,-0.408
11,COc1cc(C(=O)NCCOc2cccc(C)c2)c(Br)c(OC)c1OC,-0.0571
12,COc1ccc(CN(C(=O)c2cccs2)c2nccs2)cc1OC,-0.311
13,CCC(C)NC(=O)CNS(=O)(=O)c1ccc(C)cc1 (stereo not drawn),-0.0996
14,Cc1cc(C(=O)NN=C2CCCCC2)c2ccccc2n1,0.0392
15,COc1ccc(N(CC(=O)N2CCc3ccccc3C2)S(=O)(=O)c2c(C)nn(C)c2C)cc1,-0.173
16,Cc1cnc(C(=O)OCC(=O)Nc2cccc(S(=O)(=O)N3CCCCC3)c2)cn1,-0.829
17,CCC(=O)Nc1ccc2c(c1)OCCO2,-0.164
18,CC1CCCN(c2ccc(C(=O)NCc3ccco3)cc2[N+](=O)[O-])C1 (stereo not drawn),-0.478
19,COc1ccc(N/N=C(/C(N)=O)C2=NC(C)(C)Cc3ccccc32)cc1,-0.381
20,C=CC[n+]1c(-c2ccc(C)cc2)csc1NNC(=O)Nc1ccccc1,-0.479
21,CN1CCN(C2OC(=O)c3ccccc32)CC1 (stereo not drawn),-0.841
22,CCOC(=O)CSC1=N/C(=C\c2cccnc2)C(=O)N1c1ccc(OC)cc1,-0.218
23,CCOc1ccccc1NC(=O)CN(c1cc(C)cc(C)c1)S(=O)(=O)c1c(C)noc1C,-0.0813
